# Variants at the background level are over-represented here.
# B1: TPR 5TU (parent)
# chain: GGAUCUUCUCGAUCUAACAAAAAAGACAAAUCUGCCACAAAGCUUGAGAGCAUCUUCGGAUGCAGAGGCGGCAGCCUUCGGUGGCGCGAUAGCGCCAACGUUCUCAACUAUGACACGCAAAACGCGUGCUCCGUUGAAUGGAGUUUAUCAUG
# Variants of: B1
# Test: polymerase ribozyme fitness, log enrichment relative to wild type (log ratio); higher = more active; in vitro selection for triplet polymerase activity
# Method in brief: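 Fitness compares each genotype's enrichment to that of the wild type on a logarithmic scale, averaging replicates with inverse-variance weights. The logarithm is base 2. Enrichment came from Illumina sequencing of input and output libraries after one triplicate round of in vitro selection, which included frozen incubation at −7 °C, of PCR-built, transcribed mutant libraries of each subunit of a heterodimeric triplet polymerase ribozyme. Only genotypes with ≥10 input reads and ≥1 read per output were kept.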
row,Variant,polymerase ribozyme fitness (log ratio)
1,A28U G58U A60C C69G G94A A106C,≤ -4.2
2,A28U U31C U33C G48A G94A,≤ -4.2
3,A29G A60G G81C C87U C105G C129A,≤ -4.2
4,A29G C43G C79G U82A C87U A91U C95U C96A A97G,≤ -4.2
5,A29U A37G C54U C87G C116A,≤ -4.2
6,A29C G59C U78G C85A C95G,≤ -4.2
7,A29G C51A G59A C87G G133C G141C,≤ -4.2
8,A28U U33G C43G A47C U55G U56A G84A C87G A106G A107C G133U G140U,≤ -4.2
9,A28U G67C U77A U90C C95U C105U A142G,≤ -4.2
10,A29C G34U U53A C87G C123A G143A U146C,≤ -4.2
11,A28G G84U,-4.02
12,A28U C108U,≤ -4.2
13,A28U C96U A115C,≤ -4.2
14,A28U A60C G81U C85A C108G G117A,≤ -4.2
15,A28U C32U G42A A107G C123A,≤ -4.2
16,A29C C32G A41G G48U G140A G141C,≤ -4.2
17,A29C C43U G71U U101A G126A U139C,≤ -4.2
18,A28U G46A G92C C103G G112A C116U A119U A120U C129G U134G,≤ -4.2
19,A29C U44A G58C A89C C99G G128A G141C,≤ -4.2
20,A29C A39G U139A,≤ -4.2
21,A28U A29G A49U G88C,≤ -4.2

row,Variant,polymerase ribozyme fitness (log ratio)
1,A28U U56A C95U A98U G133A,≤ -4.2
2,A28U G86C C87U C99A C125A U135G,≤ -4.2
3,A28U A29U G42A G68C C75A,≤ -4.2
4,A29C C51U G83C C95U A137G G143C,≤ -4.2
5,A28U C63U U82G C95A,≤ -4.2
6,A29C G46U G65C A98U G112U A115U G143A,≤ -4.2
7,A29C G58U A91U C99U C131G,≤ -4.2
8,A29G G48C U53A A60C A91U C95G U104C G126U U139A U151C,≤ -4.2
9,A29G C43A A66U U101G G143U,≤ -4.2
10,A29G U45A G48A C51G U55A C95G U127C G141A,≤ -4.2
11,A29C A40G C54G C76A C85U A107G C123U U145A,≤ -4.2
12,A28U A37C A73G C95G A98U U139A,≤ -4.2
13,A28U C36A C96U U109G,≤ -4.2
14,A29C C54A C57U C76G C79G G94A,≤ -4.2
15,A28U G86U U135C,≤ -4.2
16,A28U A37C C57G C95U G117U C125G U134G G136A,≤ -4.2
17,A29C C75U C79A G92U A150G,≤ -4.2
18,A29C G46U C87A G126C,≤ -4.2
19,A28U G80A A91G C116G,≤ -4.2
20,A28U C85A,-4.11
21,A29G A39C C51U C69A G128U G143U U151C,≤ -4.2

row,Variant,polymerase ribozyme fitness (log ratio)
1,A28U G46A A52C U53C U55A A89C C99G,≤ -4.2
2,A28U A41G C76A C93G,≤ -4.2
3,A29C A52U G92C C103U C116G G124A,≤ -4.2
4,A29G U45G A52C G88C U146G,≤ -4.2
5,A29U A40U C95G G100A G140U A142U,≤ -4.2
6,A29G A30U C57A U61G G80U U82G G94A G112U G140C,≤ -4.2
7,A29G G81U G92A C125U A138G,≤ -4.2
8,A28U C32G G83C C93G A98U A115G,≤ -4.2
9,A29G G86A U101G C125G,≤ -4.2
10,A29C A37C G86A,≤ -4.2
11,A29C G68A C93A G126A,≤ -4.2
12,A28G G94C G100U U134G,≤ -4.2
13,A28U C75U G86C U134G A142C A147U,≤ -4.2
14,A29C C54A C75A G141C G143C,≤ -4.2
15,A28U C93U,≤ -4.2
16,A29U A41U A47U G86U U148A,≤ -4.2
17,A29U A40G A60U A64G C93U A122U U127C C149U,≤ -4.2
18,A28U C125G G141C,≤ -4.2
19,A29U A30C G58U G74U G133C,≤ -4.2
20,A28U G50A A89G C95A A97C U139C A142U,≤ -4.2
21,A28U C43U C57U G94A U146C,≤ -4.2

row,Variant,polymerase ribozyme fitness (log ratio)
1,A29C A73C G83A U135G,≤ -4.2
2,A28U G50C A73U G74A C85U C108A G140U U144C,≤ -4.2
3,A28U G100U A113C,≤ -4.2
4,A28U U148A,≤ -4.2
5,A28U C36G C93A C131G,≤ -4.2
6,A28U A97G A98U U101A C131U A138C,≤ -4.2
7,A29C A47U A49U C99G G126A,≤ -4.2
8,A28U C69U U139C,≤ -4.2
9,A29G C79A,≤ -4.2
10,A28U U77A C87U A106G U135G,≤ -4.2
11,A29C C38G U55A C75U U82C C105U,≤ -4.2
12,A29C C105G,≤ -4.2
13,A29C C76A G88C C95G,≤ -4.2
14,A29C U56A G83U,≤ -4.2
15,A28U C36G C85G G94A C131G,≤ -4.2
16,A29C C54G C93G A98G A107C G124A,≤ -4.2
17,A28U C69U G133U,≤ -4.2
18,A28U A30U A52G C79A U82C C85A C132U,≤ -4.2
19,A28U G42A U56A C79G C93A C125G A147G,≤ -4.2
20,A28U A47C C51A G68U G92A A113U A122G,≤ -4.2

# From the RNAGym collection of RNA variant scans (doi:10.1073/pnas.2313332121)
